Laboratory results taken from the supplement of paper PMC11417369.
± gives the standard deviation of the averaged measurements. This is one part of the list.

Test system: PfAP2-EXP AP2 domain (GST-tagged)
Assay: gcPBM binding intensity (ln(normalized median fluorescence intensity)); higher = stronger DNA binding
Summary of the method: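 An Agilent 4 × 180k array of primer-extended double-stranded 36-bp intergenic genomic probes, with negative controls, was incubated for 1 h with GST-tagged P. falciparum DNA-binding domains expressed in E. coli. Alexa488 anti-GST antibody detected bound protein, scanned at 488 nm. Binding intensity is the highest Masliner-normalised natural-log median intensity across replicate spots of either probe orientation.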

In order of falling “gcPBM binding intensity (ln)” value:
1. GCACAACATATATTATCACACACATATATATATATA [CACACA_site8619]  10.3 ± 0.18
2. TTTTTGTAATATTATGATGTCATATATATATATATA [XGTACX_negctrl_site618]  10.2 ± 0.54
3. TATATATATATAATTGCACACATCAAGTTTGATGTT [CACACA_site1288]  9.93 ± 0.28
4. TTTATACAATAAAATGCATGCAAGTATCTATTTTAT [TGCATGCA_site210]  9.85 ± 0.23
5. TATATATATATAAGTAGTACAATAATATATTATTTT [XGTACX_site6450]  9.74 ± 0.27
6. TAATATTATATTTATAGTACATATAATATATATATA [XGTACX_site2964]  9.215 ± 0.049
7. CAAAAGAATATATGTAGTACATGTTGTAGATAATAT [XGTACX_site1044]  9.02 ± 0.38
8. GTTGTATACAATAATGTGCACATATTAATTTGAACT  9.01 ± 0.2
9. TATAAATAAAAGTGTACACACATTAAAATCAAACGT [CACACA_site5316]  8.93 ± 0.085
10. ATAGATCCTAATGTTGTGCACATGTAAATTAATATA  8.91 ± 0.21
11. GTTATATAAACATATGCATGTGAAGTGTTTATTAAT [TGCATGCA_site183]  8.87 ± 0.45
12. TAAGTTTTGTTTTTTTGTACTCATTCATACTATCAT [XGTACX_site3638]  8.87 ± 0.49
13. TCAGATATATAGAATACACACATGGATATAAGAAAT [CACACA_site7831]  8.85 ± 0.49
14. TATAGTTTCATTCTTTGTACATATATATTATTATTA [XGTACX_site8527]  8.81 ± 0.4
15. ACCATATAAATAAACACACACACACCGATATATATA [CACACA_site5310]  8.8 ± 0.41
16. AAAATACACGCATACACACACACACCGACACATATA [CACACA_site4523]  8.76 ± 0.45
17. CATACATATATACATACACACACATATAACCAATGT [CACACA_site8679]  8.68 ± 0.38
18. CTTATTTACTATTTTTCACACATTACAGATAAACAA [CACACA_site6095]  8.65 ± 0.39
19. GAATAATATATATGTTCACACATGGTCTTTATTATA [CACACA_site5457]  8.63 ± 0.31
20. AAATTGGGTACAAATACACACACATATATATATTAA [CACACA_site8745]  8.62 ± 0.48
21. AATGTGCAAACAAACTGTACTTTTTTTTTTTTTTTT [XGTACX_site928]  8.61 ± 0.12
22. AAACACACACACAAATGTACATATATATATATATTT [XGTACX_site5090]  8.61 ± 0.41
23. TAAATATATATATATAGTACAATATAATTATGATAT [XGTACX_site258]  8.61 ± 0.38
24. TTTGTATTACGTTTGTGTACATATACAATGTGTTTT [XGTACX_site7708]  8.57 ± 0.31
25. TTTTCTTAATATTTCGTTTTACATAAACCTTTTAAA [CACACA_negctrl_site660]  8.57 ± 0.46
26. GAACACTAATAATGTTGTACACGTAATTATATATTT [XGTACX_site777]  8.56 ± 0.38
27. TCCATGCATTGACACACACACAAAAAAAAATTCTTT [CACACA_site7847]  8.55 ± 0.23
28. AAAATAAATAAAAAAAGTACATATATAATTTATAAA [XGTACX_site2411]  8.55 ± 0.33
29. AAATGTACAGGACGCACACACATATTTATATTTATA [CACACA_site7689]  8.55 ± 0.33
30. TTTTACATCATATATAGTACATATATTATACATATA [XGTACX_site8590]  8.54 ± 0.39
31. TTTATTTATTTATGGACACACATACAAATCTTCCAG [CACACA_site4676]  8.53 ± 0.38
32. TGTTGTGATATATTAAAATCGTCCCTTATAATTTTA [GTGCAC_negctrl_site595]  8.52 ± 0.52
33. TACCTAATATGTTATACACACATTATGAGTACATAT [CACACA_site2466]  8.51 ± 0.4
34. TCATTGAAAAAAATCTGTACTGACTATATAGTTGCA [XGTACX_site1566]  8.44 ± 0.33
35. ATATTTTGTAACTATACACACATATATATATTATAA [CACACA_site3062]  8.44 ± 0.35
36. ATATATTTTCATTTTACACACAAATAAAGATAATTT [CACACA_site2996]  8.41 ± 0.33
37. AATATAATATTATATAGTACATATTTCTTTTATTTT [XGTACX_site22]  8.38 ± 0.36
38. TCTTGATACAAACATTTAAATAAATAAATAAAAAAA [GTGCAC_negctrl_site41]  8.35 ± 0.34
39. AAAAAACAAAAAAAAAAAAAAATAATACAATATAAT [CACACA_negctrl_site1630]  8.31 ± 0.5
40. TATAATATATGTATATGTACTTATGTTGAGAAACAT [XGTACX_site2117]  8.3 ± 0.25
41. AGATTTATTCATTCATGTACTTATTTATTTTATTTT [XGTACX_site6702]  8.18 ± 0.32
42. AATAATAATGCTTTAACTTTGTTGTTATTTAGAATA [CACACA_negctrl_site1144]  8.16 ± 0.41
43. TATAATGAACATATGTGTACATATATTTTTTAAATT [XGTACX_site8736]  8.12 ± 0.27
44. TTTTTTTTTCCTTTTTTTTAAATATTAAAAATGGGA [TGCATGCA_negctrl_site494]  8.07 ± 0.38
